Measured values taken from PMC4336329 (PLoS ONE, 2015).
The campaign covered roughly 310,000 compounds. About 2,200 (0.71%) showed an effect of 50% or more. Effects have a minus sign here. The list shows a part of the results.

Target: human ether-à-go-go-related gene (hERG) potassium channel (human, UniProt Q12809)
Assay: primary screen, population patch clamp on CHO cells stably expressing hERG

Sequence of human ether-à-go-go-related gene (hERG) potassium channel (Q12809 whole entry, looked up): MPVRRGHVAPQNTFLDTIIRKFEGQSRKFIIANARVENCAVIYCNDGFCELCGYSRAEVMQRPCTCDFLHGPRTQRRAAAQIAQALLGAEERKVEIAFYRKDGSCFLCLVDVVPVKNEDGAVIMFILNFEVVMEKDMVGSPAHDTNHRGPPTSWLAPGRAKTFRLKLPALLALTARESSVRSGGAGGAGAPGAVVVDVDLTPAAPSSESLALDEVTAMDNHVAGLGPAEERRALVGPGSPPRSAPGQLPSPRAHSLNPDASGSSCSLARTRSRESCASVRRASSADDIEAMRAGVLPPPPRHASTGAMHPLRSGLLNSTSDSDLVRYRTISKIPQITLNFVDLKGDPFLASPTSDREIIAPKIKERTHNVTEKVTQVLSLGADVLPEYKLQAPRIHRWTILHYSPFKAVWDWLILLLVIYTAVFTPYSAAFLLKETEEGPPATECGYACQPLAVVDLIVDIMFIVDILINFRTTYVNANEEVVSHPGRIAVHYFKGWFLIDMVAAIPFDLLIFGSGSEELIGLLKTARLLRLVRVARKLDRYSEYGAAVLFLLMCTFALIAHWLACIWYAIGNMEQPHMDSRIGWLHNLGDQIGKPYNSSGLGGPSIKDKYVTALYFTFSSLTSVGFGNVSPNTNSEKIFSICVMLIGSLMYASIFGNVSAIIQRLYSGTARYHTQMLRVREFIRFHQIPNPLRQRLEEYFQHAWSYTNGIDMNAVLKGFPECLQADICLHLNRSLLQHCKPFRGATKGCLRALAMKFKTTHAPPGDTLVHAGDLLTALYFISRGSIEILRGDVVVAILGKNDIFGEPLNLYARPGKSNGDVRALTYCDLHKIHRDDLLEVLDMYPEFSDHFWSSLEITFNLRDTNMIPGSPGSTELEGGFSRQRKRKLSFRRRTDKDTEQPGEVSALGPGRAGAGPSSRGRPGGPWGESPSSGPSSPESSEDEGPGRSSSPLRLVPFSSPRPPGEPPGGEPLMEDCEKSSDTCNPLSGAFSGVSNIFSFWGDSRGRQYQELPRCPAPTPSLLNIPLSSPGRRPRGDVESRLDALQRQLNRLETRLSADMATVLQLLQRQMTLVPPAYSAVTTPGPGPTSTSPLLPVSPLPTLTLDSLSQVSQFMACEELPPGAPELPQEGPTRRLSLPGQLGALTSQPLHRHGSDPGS

Row | Structure (SMILES) | hERG current change (%, negative = inhibition) at 1uM
1 | CC(=O)c1cn(N2CCCCC2)c(=O)[nH]c1=O | 12.4%
2 | O=c1oc(-c2cccs2)nc2ccc(Cl)cc12 | 17.4%
3 | S=c1[nH]nc(-c2ccccn2)n1/N=C/c1ccc(-c2ccccc2Cl)o1 | 11.2%
4 | CCOc1ccccc1NC(=O)CN1CCC(C(=O)c2ccc(F)cc2)CC1 | -6.42%
5 | Cc1cccc(C)c1NC(=O)CNC(=O)C(NC(=O)c1ccc(C(C)(C)C)cc1)C(C)C (centres unmarked) | 20.6%
6 | COc1ccc(OCCN2C(=O)c3ccccc3C2=O)c([N+](=O)[O-])c1 | 5.1%
7 | O=C(CCS(=O)(=O)Cc1ccccc1)NCC1CCCO1 (centres unmarked) | 8.86%
8 | COc1cccc(NC(=O)CCNS(=O)(=O)c2ccc3c(c2)CC(C)N3C(=O)C2CC2)c1 (centres unmarked) | 3.29%
9 | Cc1ccccc1C(=O)Nc1nc(-c2cccnc2)cs1 | 16.7%
10 | CCCNC(=O)C(=O)Nc1cc2c3c(c1)CCC(=O)N3CCC2 | -4.76%
11 | O=C(CC1CCCCC1)NCc1ccc(Cl)cc1 | 11.8%
12 | Cc1cccc(-n2c(CN3C(=O)c4ccccc4C3=O)nc3ccccc3c2=O)n1 | 2.18%
13 | CCOc1ccc(NC(=O)C2C3c4ccccc4C(c4ccccc43)C2C(=O)O)cc1 (centres unmarked) | 12.9%
14 | O=C(O)c1ccccc1N=N/C(=N/Nc1cc(S(=O)(=O)[O-])ccc1O)c1ccccc1.[Na+] | 15.7%
15 | Cc1ccc(-c2csc(N(CCc3ccccc3)C(=O)COc3ccccc3)n2)cc1 | 14%
16 | Cc1ccc(NC(=O)CN(C)C(=O)/C=C/c2cccc(F)c2)cc1 | 4.17%
17 | O=C(NCc1ccccn1)c1ccccc1-c1ccccc1 | 10.4%
18 | Cc1cc(C(=O)N2C(C)CCCC2C)no1 (centres unmarked) | 12%
19 | CC[C@H](C)C(C(=O)N1CCN(C(=O)OC(C)(C)C)CC1)n1cc(C(CC(C)C)NC(=O)OC(C)(C)C)nn1 (some centres unmarked) | 18.7%
20 | Cc1ccc2c(c1)N(CCC(=O)NCCCOC(C)C)C(=O)C(C)O2 (centres unmarked) | 6.48%
21 | Cc1sc2ncnc(N3CCC(C(=O)NNC(=O)c4ccc(F)cc4)CC3)c2c1C | 3.33%
22 | O=C(Nc1ccncc1)c1ccc(F)cc1 | 7.66%
23 | Cc1c[nH]c2cccc(OCC(O)CNC(C)(C)C)c12.Cl (centres unmarked) | -0.947%

Row | Structure (SMILES) | hERG current change (%, negative = inhibition) at 1uM
24 | O=C1NNC(c2ccccc2)=N/C1=C\c1ccccc1 | 6.67%
25 | CCOc1c(Cl)cc(CNc2ccc(S(N)(=O)=O)cc2)cc1OC | -0.0201%
26 | Cc1nn(C(C)c2n[nH]c(=S)n2-c2cccc(Cl)c2)c(C)c1[N+](=O)[O-] (centres unmarked) | 7.53%
27 | CN(C)C=O.O=C(OCC(=O)N1CCCc2ccccc21)C1CCN(S(=O)(=O)c2cccs2)CC1 | 3.08%
28 | NC(=NC(=O)c1ccccc1)N1CCOCC1 | 1.61%
29 | O=C(COc1ccc(Cl)cc1)Nc1ccc(CN2CCOCC2)cc1 | -19.9%
30 | O=C(NCc1cccnc1)c1cccc(S(=O)(=O)N2CCCC2)c1 | -4.45%
31 | Cc1c(C#N)c(O)n(CCO)c(=O)c1N=Nc1ccccc1 | 13.7%
32 | C/C(=N/NC(=O)c1cc2ccccc2cc1O)C1C(=O)c2ccccc2C1=O | 20.6%
33 | CCOC(=O)c1cn(CC(=O)Nc2cccc(F)c2)nn1 | -19.4%
34 | COC(=O)Cc1ccc(NC(=S)NC2CC2)cc1 | -8.1%
35 | CCc1nc2sc3ccccc3c(=O)c2c(=O)n1Cc1ccco1 | 7.63%
36 | Cc1ccc(CCNC(=O)C23CN(Cc4ccccc4)CC2C(c2ccc([N+](=O)[O-])cc2)=NO3)cc1 (centres unmarked) | -5.81%
37 | CN(C)S(=O)(=O)c1ccc2oc(SCC(=O)NCC(F)(F)F)nc2c1 | -8.9%
38 | O=C(O)[C@H]1CCCC[C@H]1C(=O)NCCc1ccccc1 | 3.43%
39 | COc1cccc(NC(=O)Nc2ccc3c(c2)CCC3)c1 | 17.6%
40 | Cc1ccc(S(=O)(=O)NCCC(=O)Nc2ccc(Cl)c(Cl)c2)cc1 | -3.56%
41 | CSc1nnc(Cn2c(=O)sc3ccccc32)n1-c1cccc(Cl)c1 | -11.6%
42 | COC(=O)CSc1nnc(CCc2nc3ccccc3[nH]2)n1C | 8.24%
43 | COCCn1c(-c2ccccc2)cnc1N | 0.0863%
44 | CC(C)=CCN1CCN(Cc2coc3ccc(C)cc3c2=O)CC1CCO (centres unmarked) | 0.0603%
45 | COc1cc(/C=C/C(=O)OCc2csc(CC(=O)Nc3ccc(C)cc3)n2)ccc1OCC#N | 14.1%
46 | CCOc1ccc(C(=O)Nc2nc3ccccc3[nH]2)cc1OCC | 4.22%

Row | Structure (SMILES) | hERG current change (%, negative = inhibition) at 1uM
47 | COC(=O)C1SCC2C(=O)N(Cc3ccc(Cl)c(Cl)c3)CC(=O)N21 (centres unmarked) | 7.64%
48 | O=C1NC[C@H](Cc2ccccc2)N(CCc2cccc(F)c2)C1=O | 6.7%
49 | CCC(C)(C)n1nnnc1C(c1ccc(C)cc1)N1CCCC1.Cl (centres unmarked) | 8.27%
50 | CN(C(=O)c1ccc(NC(=O)Cc2cccc(NC(=O)C3CCN(C(=O)CCc4ccccc4)CC3)c2)cc1)C1CCCC1 | 16.2%
51 | Cc1nc2ccccc2c(=O)n1-c1cccc([N+](=O)[O-])c1 | 10.8%
52 | Cc1ccccc1-c1nnn(C/C(N)=N/O)n1 | 15.2%
53 | CCOc1ccc(Br)cc1CC(=O)O | 14.5%
54 | CC1CCCCN1C(=O)Cn1c(=O)oc2cc(S(=O)(=O)N3CCCC3)ccc21 (centres unmarked) | 15%
55 | CCC(C)n1c(O)c(/C=N/NC(=O)c2ccncc2)c(=O)[nH]c1=S (centres unmarked) | 8.24%
56 | COC(=O)c1ccc(-c2ccco2)n1Cc1nc(-c2ccc(OC)c(OC)c2)oc1C | 0.0741%
57 | COc1ccc(CCN(C)C2CCCN(S(=O)(=O)N(C)C)C2)cc1OC (centres unmarked) | 8.71%
58 | O=C1CC(c2cccnc2)=NN1c1ccccc1 | 16.3%
59 | COc1ccccc1OCCSc1nc2ccccc2n1CC(N)=O | 16.1%
60 | Cc1ncc(C[n+]2csc(CCOC(=O)C34CC5CC(CC(C5)C3)C4)c2C)c(N)n1.Cl.[Cl-] | 4%
61 | CCOc1ccc2nc(NC(=O)CN3C(=O)C4CCCCC4C3=O)sc2c1 (centres unmarked) | 12.9%
62 | COc1ccccc1C(=O)NCC(=O)OCc1csc(-c2ccccc2)n1 | 10.6%
63 | Cc1ccc(Nc2oc(C)nc2C#N)cc1 | 10.6%
64 | CCOC(=O)C1CCCN(CCC(=O)Nc2cccc(C)c2)C1.Cl (centres unmarked) | -0.545%
65 | COc1cccc(NC(=O)CN(C)S(=O)(=O)c2ccc3[nH]c(=O)oc3c2)c1 | 3.98%
66 | O=C1c2ccc3c4c(ccc(c24)C(=O)N1NC(=O)C(F)(F)F)CC3 | 10.1%
67 | CN1C(=O)CSC1=Nc1cccc(Cl)c1 | 8.17%
68 | CCc1ccc(-n2nnnc2SCC(=O)Nc2ccc(NC(C)=O)cc2)cc1 | 20.4%
69 | Cc1nn(-c2ccc(C(=O)O)cc2)c2c1C(=O)CC(C)(C)C2 | 9.87%

Row | Structure (SMILES) | hERG current change (%, negative = inhibition) at 1uM
70 | CCOc1ccc2[nH]c3c(c2c1)CNCC3 | 7.07%
71 | CC(C)CN(C(=O)CN1CCC(C)CC1)c1c(N)n(CC(C)C)c(=O)[nH]c1=O | 16.1%
72 | Cc1cc(C)n(-c2nc(C(=O)O)cs2)n1 | 16.4%
73 | COc1cc(C(=O)NCCOc2ccccc2)c(Br)c(OC)c1OC | -26.3%
74 | Nc1nnc(CC(=O)N/N=C\c2ccc(-c3cccc(Cl)c3)o2)s1 | -2.3%
75 | O=S(=O)(NC1c2cccc3cccc(c23)C1N1CCNCC1)c1ccc(Cl)cc1 (centres unmarked) | -0.188%
76 | O=C(c1ccc(F)cc1)N1CCN(c2cc(=O)[nH]nc2-c2ccccc2)CC1 | 6.34%
77 | CC(=O)Nc1ccc(NC(=O)CCCNC(=O)c2ccc(Cl)cc2)cc1 | 17.4%
78 | OCCN(CCO)c1ccc(C(c2ccc(Cl)cc2)c2ccc(N(CCO)CCO)cc2Cl)c(Cl)c1 | -2.52%
79 | O=C(O)[C@@H]1CCCN1C(=O)CCc1c[nH]c2ccccc12 | 8.31%
80 | Cc1ccc2cccc(OCC(=O)Nc3ccc(N4CCOCC4)cc3)c2n1 | 5.29%
81 | Cc1nn(C)c(C)c1S(=O)(=O)N(CC(=O)Nc1ccccn1)c1ccc(C(C)C)cc1 | 11.2%
82 | Cc1ccc(Cn2nc(C)c(C(=O)N3CCN(S(=O)(=O)/C=C/c4ccccc4)CC3)c2C)cc1 | 7.03%
83 | O=C1CCC(=O)N1CCc1c[nH]c2ccccc12 | 13%
84 | Cc1ccc(N=C2NC(=O)/C(=C\c3ccsc3)S2)c(C)c1 | 9.18%
85 | CCOC(=O)c1c(NC(=O)COC(=O)c2nc(Cl)ccc2Cl)sc(C(=O)NC)c1C | 5.54%
86 | COc1ccccc1NC(=O)CCN1C(=O)c2ccccc2C1=O | 7.7%
87 | CCOC(=O)/C=C1\SCC(=O)N1CCOc1cccc(Br)c1 | 14.5%
88 | O=C(NC(NC(=S)Nc1ccccc1)C(Cl)(Cl)Cl)c1cccc(Cl)c1 (centres unmarked) | 13.5%
89 | O=C(O)c1cc(-c2cccs2)nn1-c1ccc(F)cc1 | 9.27%
